Assay results reported in patent publication US20200338132A1, “COMPOSITIONS AND METHODS FOR THE EXPANSION OF HEMATOPOIETIC STEM AND PROGENITOR CELLS AND TREATMENT OF INHERITED METABOLIC DISORDERS” (Magenta Therapeutics Inc., priority 2018, published 2020).

Assays:
NSG mice [1] = assay: engraftment of expanded CD34+ cells in sub-lethally irradiated NSG mice; assay type: in vivo; conditions: relative to vehicle-cultured CB derived CD34+ cells
Description: […]. Cell number and immunophenotype were assessed by flow cytometry, and HSC function was evaluated by cell and molecular assays in vitro. The expanded cells were transplanted into sub-lethally irradiated NSG mice to evaluate engraftment potential in vivo. Engraftment rates were evaluated by flow cytometry of the peripheral blood and bone marrow.

NSG mice [2] = assay: engraftment in NSG mice of CD34+ cord blood cells cultured 10 days with compounds, hCD45+ at 12 weeks; assay type: in vivo; conditions: 12 weeks after transplantation
Description: […]. The frequency of human CD45 cells was assayed at 12 weeks post transplantation. The Bar graph indicates the median. Each symbol represents individual mouse (n=6-8) *p<0.05, *p<0.01, *p<0.001 relative to vehicle-cultured cells.
In order to determine if the increase in CD90+ expression would lead to expansion of long-term HSCs, the percent engraftment of cells expanded using SR, UM171, Entinostat, LMK235, Romidepsin, Scriptaid, TSA or VPA at varying concentrations was assessed in NSG mice. CD34+ cord blood cells, either fresh or cultured for 10 days with or without SR, UM171, Entinostat, LMK235, Romidepsin, Scriptaid, TSA or VPA were transplanted into NSG mice, 12 weeks after transplantation, the frequency of human CD45+(hCD45+) cells was assessed. […] It was therefore hypothesized that the CD90+ cells observed after expansion UM171, Entinostat, LMK235, Romidepsin, Scriptaid, TSA or VPA were not true HSCs. […] […]. Rather, culturing cells with these agents instead causes CD90− cells to turn on the expression of CD90 during the culturing and expansion process.

[3] = patients transplanted with SR1-expanded cord blood cells; historical controls 25 days; cited from earlier work
CD34+ cord blood cells = conditions: cited from earlier work; for CD90+ cells after culturing CD34+ cord blood cells: frequently in the presence of cytokines
[4] = system: CD90− and CD90+ sorted cells; assay: colony formation on methylcellulose of sorted CD90− or CD90+ cells cultured with compounds; conditions: Scriptaid 100 nM and 300 nM, TSA 30 nM; versus vehicle; listed as SR
[5] = system: mobilized peripheral blood cells; assay: 7-day expansion of mobilized peripheral blood cells, 10-point dose response, FACS for CD34 and CD90
[6] = target: T1, aryl hydrocarbon receptor (Homo sapiens, UniProt P35869); assay: aryl hydrocarbon receptor-responsive luciferase reporter in transiently transfected HepG2 cells; assay type: cell-based; conditions: absence or presence of agonist VAF347 (80 nM), six hours after plating
T1 construct: HepG2 hepatocytes were transiently transfected with a luciferase reporter construct under the control of a promoter responsive to aryl hydrocarbon receptor signal transduction; endogenous in cells; host or cells: HepG2
T1 sequence (P35869 11-848): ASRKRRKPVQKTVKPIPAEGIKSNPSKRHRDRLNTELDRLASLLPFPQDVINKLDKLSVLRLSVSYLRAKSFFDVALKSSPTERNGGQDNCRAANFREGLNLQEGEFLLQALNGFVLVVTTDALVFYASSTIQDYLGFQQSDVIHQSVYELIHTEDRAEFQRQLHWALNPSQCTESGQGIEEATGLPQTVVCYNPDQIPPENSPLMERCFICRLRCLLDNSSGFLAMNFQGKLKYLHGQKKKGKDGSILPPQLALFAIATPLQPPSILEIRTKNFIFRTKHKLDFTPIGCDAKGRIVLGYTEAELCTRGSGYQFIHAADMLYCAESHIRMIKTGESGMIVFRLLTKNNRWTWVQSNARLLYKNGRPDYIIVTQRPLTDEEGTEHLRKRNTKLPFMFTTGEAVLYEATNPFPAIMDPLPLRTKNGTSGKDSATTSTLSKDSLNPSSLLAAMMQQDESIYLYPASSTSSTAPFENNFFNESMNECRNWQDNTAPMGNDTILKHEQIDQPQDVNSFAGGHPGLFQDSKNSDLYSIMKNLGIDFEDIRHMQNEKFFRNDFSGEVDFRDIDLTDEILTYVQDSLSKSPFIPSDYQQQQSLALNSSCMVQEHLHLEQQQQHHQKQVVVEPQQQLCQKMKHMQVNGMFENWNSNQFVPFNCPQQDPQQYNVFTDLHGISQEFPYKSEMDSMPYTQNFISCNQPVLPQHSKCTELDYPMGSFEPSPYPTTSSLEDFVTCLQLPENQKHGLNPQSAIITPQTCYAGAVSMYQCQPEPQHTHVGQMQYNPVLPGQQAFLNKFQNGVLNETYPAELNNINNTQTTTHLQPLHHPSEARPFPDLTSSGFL
Description: To determine the ability of compounds (7) and (18) to inhibit the activity of the aryl hydrocarbon receptor and to induce the proliferation of hematopoietic stem cells, a series of HSC expansion experiments were conducted. In the first experiment, compounds (7) and (18) were assessed for their capacity to attenuate aryl hydrocarbon receptor signaling. To this end, HepG2 hepatocytes were transiently transfected with a luciferase reporter construct under the control of a promoter responsive to aryl hydrocarbon receptor signal transduction. The cells were plated at a density of 25,000 cells per well in a microtiter plate. The HepG2 cells were immediately treated with compound (7) or (18) in the absence (FIG. 1) or presence (FIG. 2) of the aryl hydrocarbon receptor agonist, VAF347 (80 nM). Luciferase activity was subsequently analyzed six hours after plating.

[7] = system: CD34+ hematopoietic stem cells; assay: proliferation of CD34+ hematopoietic stem cells from mononuclear peripheral blood cells, seven days; assay type: cell-based; conditions: for potency of promoting hematopoietic stem cell expansion compared to SR1: compared to potency reported for StemRegenin1; for hematopoietic stem cell growth (percentage of CD34+ cells): seven days following initial plating
Description: To assess the ability of compounds (7) and (18) to induce the proliferation of hematopoietic stem cells, a population of mononuclear peripheral blood cells enriched in CD34+ cells were plated at a density of 2,350 cells per well (50 μL) in a microtiter plate in the presence of each compound. The percentage of CD34+ hematopoletic stem cells was assessed seven days following the initial plating. […] The compounds of formula (IV) and (V) described herein can thus be used to expand hematopoletic stem cells ex vivo in order to obtain sufficient quantities of such cells for in vivo applications.

NSG mice [8] = assay: transplantation into NSG mice of human hematopoietic stem cells expanded ex vivo with the compound; peripheral blood hCD45+ and brain microglia; conditions: NSG mice transplanted with hematopoietic stem cells expanded ex vivo in the presence of the compound
Description: To investigate the ability of hematopoletic stem cells to differentiate into microglial cells and subsequently engraft in central nervous system tissue, such as the brain of a hematopoletic stem cell transplant recipient, a series of experiments were conducted in which human hematopoletic stem cells were first expanded ex vivo in the presence of an aryl hydrocarbon receptor antagonist (compound (18) or compound (26)) and were subsequently transplanted into NSG mice, in accordance with the scheme shown in FIG. 4. The frequency of human CD45+ cells in the peripheral blood of the mice was then determined, as well as the profile of microglial cells in the brain tissue using flow cytometry and immunohistochemistry techniques.
Approximately 60,000 cord blood CD34+ cells were seeded in T25 flasks at a final volume of 12 mL in HSC growth media (SFEM supplemented with Pen/Strep, 50 ng/mL FLT3L, TPO, SCF, and IL-8). […]
At the time of thaw, an equal number of cells to the starting cell cultures were injected Into NSG mice, sublethally irradiated (200 cGy) 24 hours prior to injection. […] Peripheral blood was harvested by retro-orbital bleeding at approximately weeks 4 and 8 or by cardiac puncture at week 12 or 16 or as otherwise indicated in FIG. 26 and chimerism was assessed by flow cytometry using antibodies against hCD45, mCD45, hCD33, hCD19, hCD3 and a viability dye. […]

Row | Structure (SMILES) | CD90+ cells after culturing CD34+ cord blood cells (CD34+ cord blood cells) | aryl hydrocarbon receptor activity (aryl hydrocarbon receptor-driven expression of luciferase) [6] | potency of promoting hematopoietic stem cell expansion compared to SR1 [7] | hematopoietic stem cell growth (percentage of CD34+ cells) [7] | other results
1 | CC(C)n1cnc2c(NCCc3ccc(O)cc3)nc(-c3csc4ccccc34)nc21 [SR1, StemRegenin1] |  |  |  |  | engraftment in NSG mice (NSG mice [1]): significant increase in engraftment in NSG mice; engraftable HSCs (frequency of human CD45+ cells) (NSG mice [2]): largest increase in engraftable HSCs; time to neutrophil recovery [3]: 10.5 days; number of phenotypic HSCs (CD34+ cord blood cells; cultured primary human CD34+ cells (Boitano et al.)): enhances the number of phenotypic HSCs; colony formation of CD90+ sorted cells [4]: increases colony formation units (CFUs) after expansion; number of CD90+ cells ([5]; after 7 days of expansion): increased the number of CD90+ cells; differentiation of CD34+ cells into CD34− cells ([5]; day 7, about half of DMSO vehicle cells differentiated): prevented the differentiation of CD34+ cells
2 | CC(/C=C/C(=O)NO)=C\[C@@H](C)C(=O)c1ccc(N(C)C)cc1 [TSA, trichostatin A] | increase in CD90+ cells |  |  |  | 
3 | CCCC(CCC)C(=O)O [VPA, valproic acid] | increase in CD90+ cells |  |  |  | 
4 | CCC(C)c1cnc2c(NCCc3c[nH]c4ccccc34)cc(-c3cncc(F)c3)cn12 (stereo not shown) [compound (7)] |  | capable of suppressing aryl hydrocarbon receptor activity even in the presence of the activator VAF347 | potency greater than that reported for StemRegenin1 | potentiating hematopoletic stem cell growth in a dose-dependent manner | 
5 | CCC(C)c1cnc2c(NCCc3c[nH]c4ccccc34)nc(-c3cncc(F)c3)cn12 (stereo not shown) [compound (18)] |  | capable of suppressing aryl hydrocarbon receptor activity even in the presence of the activator VAF347 | potency greater than that reported for StemRegenin1 | potentiating hematopoletic stem cell growth in a dose-dependent manner | frequency of hCD45+ cells in peripheral blood (NSG mice [8]): increased frequency of hCD45+ cells in peripheral blood
